Test results published in the supplement of paper PMC10126150.
Sequences with one replicate were seen in a single cluster, so their values are uncertain.

Test system: ATP
Assay: switch fluorescence ratio, 500 uM ATP over buffer (Cy3 cluster intensity, sum of 5 cycles each) (fold (ratio)); higher = stronger signal-on switching upon ATP binding; sequences stand for … in TCGTCGGCAGCGTCAGATGTGTATAAGAGACAGTTTTTTTTTTTTTTTTTTTTTTTTT…TC
Conditions: aptamer strand: ATP DNA aptamer (quencher-CACCTGGGGGAGTATTGCGGAGGAAGG + anchor), 100 nM annealed; ATP concentration: 500 uM; one replicate
Method in brief: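 The quencher-labelled ATP aptamer, at 100 nM, was annealed to Cy3-labelled switching-strand clusters on a modified Illumina MiSeq flow-cell. The clusters were imaged in selection buffer, then after 15 min with 500 uM ATP at 22 °C, and this buffer/ATP cycle ran five times with NaOH stripping and re-annealing between runs. Per-cluster fluorescence ratios, summed target-cycle over summed buffer-cycle Cy3 intensity, were averaged per switch-domain sequence. Clusters outside 100-1000 RFU were excluded.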
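Note: ATP exposure 15 min at 22 °C before imaging.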

Sequence | switch fluorescence ratio
ATATACTGGG | 1.04
TGATAGCGTT | 1.03
GAAGATAAAA | 1.01
TTACCGAGTT | 0.975
ATGCGGCCTG | 1.02
ACGCCTGCGC | 1.06
TCCGTTATTG | 1.07
TAACCGCACG | 1.59
GATGGGGTGC | 0.985
CGTCAAGAAG | 0.983
TTTTCGACGC | 1.8
GGATGCCCCT | 0.942
TTATTTTGCA | 0.974
AGTGAACTGG | 1.03
ACGGTGGTGC | 0.996
GCCGAACCGG | 1.04
TTGACCCCGG | 0.994
GCGGGTCCGT | 0.983
AGTTGGGTCC | 0.987
CAGAGTGCGG | 0.996
AAAGGTAGGA | 1.04
CGGCTGTCTA | 0.989
GGTTTCGAGA | 0.979
CTTCGCCCGG | 1.31
GGTCGCTATA | 0.992

Sequence | switch fluorescence ratio
CCGTAACATG | 1.32
TTAACGAGCG | 0.977
CATATAACGC | 0.998
CGGTGTTGAC | 1.01
CTAGGGTATC | 1.01
TTTTCTGGAG | 1.26
TGTAATGTTT | 0.982
CTTTAGCGCG | 0.976
CGCCACGGCG | 1.01
TACATGTATA | 0.992
GACCTGTGA | 0.986
GTCCGTGCGC | 1.28
TAGGAGATCG | 0.96
CTGAGCAGCG | 1.11
GATCTCGCGG | 0.985
CGTCTGCCAC | 1.43
ACGGGTCGTC | 0.993
TCGGCAAACT | 3.22
CGTTTTGTCC | 0.989
GGGAAATGGA | 0.987
AGCCGGGGGG | 1.03
ATAATG | 0.973
AAGGCAACAT | 0.976
ACTGGGTCAC | 1.03
AAACCGGCG | 1.04

Sequence | switch fluorescence ratio
AGATTCAATC | 1
ATGTATCATC | 0.997
AACGGGACAG | 1.05
CGTTCCTGTA | 1
GGCGTCCATT | 0.969
CTGGCTGTGG | 0.984
TTTGTGTGCT | 0.957
TCAATGGGCG | 0.951
ATGGGTAGCG | 1.16
CAGGTCCGAT | 1
AGCCTAGATA | 1.01
ACAGCACGTC | 1.35
ATCTTAGGTG | 1.05
AACTTGCCTT | 1.08
TCGCCATAGT | 1.23
AGTTAAGAC | 1.08
TCGAGTTGAC | 1
CCAAAAATCG | 1.02
TGGAAGACTA | 0.992
CGGAGTATTT | 1.04
TTGGAGCGAG | 1.13
GATGCTGGTA | 1
CTTGGAACT | 1.03
TAACTGTCTG | 0.985
CTGCACGCAG | 1.09

Sequence | switch fluorescence ratio
ATGGTTTCTG | 0.951
AAGACACTGC | 0.983
CGGCACACGG | 0.992
GCAATTTAGG | 0.997
AGGAAAATCC | 0.996
TGCGGGCCAC | 0.981
ATTGAGCCTA | 0.934
GGCGGACTCA | 0.974
GTGAGTGCTA | 0.948
GTTGCTAATA | 0.975
GTATATTTTT | 1.23
GATATGGAGA | 0.968
AACAGGGAGT | 0.972
CCTATCGGAT | 1.23
TCGTGGGCAA | 1.92
GAGGTGAGCA | 0.956
GGGGGACTCG | 0.95
GTTGGAGACG | 0.965
CGATCGGTGC | 1.17
CGAAAGGTTT | 0.981
GATTAGTTAG | 0.951
AATTCTGTTT | 1.03
GGTCCGGATA | 1.07
CTGGACATTA | 1.03
AAACTAGGAT | 1.03

Sequence | switch fluorescence ratio
AGGATTAGCC | 0.998
CTTGCGGAC | 1.41
TGTTCTTCTG | 0.977
GAGATCTAAA | 0.973
CGAAGGTCTT | 1.02
ATGTGATTGC | 1.04
ACTGAACCTT | 1.78
CGAAGCTCGG | 1.08
TTTGGGCTAA | 0.951
AACGTGCTAC | 1.3
CGATGGCTAC | 4.42
ATGTCGGGGG | 1.13
ACAACGCTGT | 1.22
ACCGCAAGGA | 2.94
TACCCGTTTG | 1.07
CTGCGATGAC | 2.89
GTGAGCCTT | 1.01
CCGCTGGCTT | 1.51
GAGTGAAGCT | 1.09
TTAGTATCAG | 1.02
TACGTTTCCT | 1.03
TGCATTAGCA | 1
ACCGGGGGTT | 1.06
ATCTGTCGCA | 0.966
CCTGCCCGGG | 1.04

Sequence | switch fluorescence ratio
TGAAAAAATG | 0.966
TACACTGTCT | 1.01
GAAAGAAGC | 1.01
TGCGTACGGT | 1.01
CAACTTACGT | 1.3
AAGGGCACCT | 1.05
AGCCTTATTT | 0.999
CAGCTACTT | 1.24
CTTTAAAGC | 1.06
GTGGGGACGA | 1.04
CGAGAGCTGG | 1.02
AACTTACGTG | 1.15
TTCACCTTAA | 1.07
GACTCCCGT | 1.13
GGTAACGGAA | 1
CCAAGACGTT | 0.986
CTTGGAGTAT | 1
TCTTTAATAC | 1.83
ACCGTTTGGG | 0.985
TCGCCTACT | 1.13
CGTTACTCTG | 1.11
TGAAGGCGTT | 0.987
CAATTTTCCA | 1.04
TGGACCCGAG | 1.02
TTGGCATAGG | 1.02

Sequence | switch fluorescence ratio
GAAGGATGGT | 0.957
GTCCTTAGGT | 0.973
TCACATCCTT | 1.04
CGAGTATTCA | 0.969
CTTGGTCCTA | 0.985
TCAATTTCAG | 1.02
TTGACGGGGT | 1.03
GGGGTCTGCT | 0.99
CAGTATATGC | 1.05
TCATAATGGG | 1.01
ACTAACAGGT | 1.27
GCAATAGCCC | 3.32
CCTCTCATTC | 5.36
GGGTGATATG | 1
TTGGTAATAA | 1.05
CGTGATAGGT | 1.02
TGCGGTTCCA | 1
AGGCACATGA | 1.06
GTTTTTTCCC | 1.02
TGTCAACCTA | 1.06
CGCAGGAAGC | 1.28
GCGCTTGAGA | 1.03
CATATATAGA | 0.97
TGTCGAGCTA | 0.992
GCCGTGTGTA | 0.971

Sequence | switch fluorescence ratio
CAAAAGGCTC | 1.21
AGCAAAGGCT | 1.01
TATATCTCAT | 0.962
TCGAGCGACC | 1.16
TATTGTACGG | 1.05
CGTGTGGTAA | 0.986
GTGGACAAAA | 0.93
CCACAAGATT | 1.09
CCGTGATTGA | 1.06
ACTAGACAAT | 1.11
AACAGTCGAA | 0.984
ACGGAGGTTT | 0.974
CCAATAGAGA | 1.01
ATTTACGCAC | 1.83
AGACAGCTTA | 1.04
TATGACGCTA | 1.71
AGGGCGTTCG | 0.971
CATACCATT | 1.04
AAAAGAGTTA | 0.969
GCAACGAGGA | 1.02
CTGTGCTGTT | 1
AGGGCGGCGG | 0.985
CGACTGGAAA | 1.01
ACTAGCCTGT | 1
TATAAATCAT | 1.02
